According to article PMC6088137:
These are yes or no findings as the source states them, for the method shown. In cells and extracts the contact can be indirect. Some results given as binding are weak or reduced against the parent protein; the word gives no strength.

Amino acid sequences for entries named in this document (tags omitted). A change or cut given only in a name is not applied to a line headed by its entry. Chains listed by the source or under a name are the forms on record and can include a tag or linker.
UniProt Q9H6Z9: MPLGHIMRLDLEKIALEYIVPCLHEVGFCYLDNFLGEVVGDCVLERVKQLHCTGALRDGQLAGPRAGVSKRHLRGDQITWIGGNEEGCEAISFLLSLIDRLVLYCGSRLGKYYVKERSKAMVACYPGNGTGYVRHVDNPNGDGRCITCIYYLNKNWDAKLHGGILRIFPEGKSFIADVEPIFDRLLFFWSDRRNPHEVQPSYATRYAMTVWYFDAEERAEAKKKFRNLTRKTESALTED
PHD3 HD135/137AA (Q9H6Z9, form named): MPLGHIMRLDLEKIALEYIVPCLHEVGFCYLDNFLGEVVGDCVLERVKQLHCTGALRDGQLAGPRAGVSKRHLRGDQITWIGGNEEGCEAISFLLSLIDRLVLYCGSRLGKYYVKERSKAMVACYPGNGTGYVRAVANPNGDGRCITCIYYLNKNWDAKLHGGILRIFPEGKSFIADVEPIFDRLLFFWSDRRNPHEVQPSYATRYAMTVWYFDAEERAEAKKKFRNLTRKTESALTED

Assays:
[1] = biological target: T1, biotinylated peptide, amino acids 349-371 of human p53, hydroxylated at proline 359 (human); assay: pull-down; biotinylated p53 peptides (349-371; proline or hydroxyproline at 359) bound to streptavidin agarose beads, incubated with lysates of transfected HEK293T cells; streptavidin agarose beads alone as negative control; western blot; only the target purified
T1 sequence (peptide, hydroxyproline at 359; biotin): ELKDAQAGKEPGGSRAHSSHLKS

[2] = biological target: endogenous p53 (HEK293T) (human (endogenous in HEK293T)) (UniProt P04637); assay: co-IP; HEK293T transfected with PHD3 wt, H196A or HD135/137AA, with or without DMOG for 4 hr; endogenous p53 immunoprecipitated, western blot
GST-p53 (human) = GST-p53 (human) (UniProt P04637); assay: pull-down; bacterial expressed GST-p53 bound to agarose beads, incubated 2 hr with lysates of HEK293T transfected with V5-PHD3, with or without DMOG for 4 hr; western blot; only the target purified
V5-tagged PHD3 = V5-tagged PHD3 (UniProt Q9H6Z9); assay: co-IP; HEK293T transfected with V5-tagged PHD3; DMSO, DMOG or JNJ for 4 hr; V5 immunoprecipitation, western blot for p53
[3] = biological target: endogenous PHD3 (HeLa) (human (endogenous in HeLa)) (UniProt Q9H6Z9); assay: co-IP; HeLa cells with or without DMOG for 4 hr; endogenous PHD3 or endogenous p53 immunoprecipitated, pre-immune antibody as negative control; immunoblot
[4] = biological target: endogenous p53 (HeLa) (human (endogenous in HeLa)) (UniProt P04637); assay: as above

For “Flag-tagged USP7 (from UniProt Q93009 1-1102) (enzyme)”, the binding [1] was “binds”.

“PHD3 H196A (from UniProt Q9H6Z9 1-239) (enzyme)” was tested, and the binding [2] was “no binding”.

“V5-tagged PHD3 (from UniProt Q9H6Z9 1-239) (enzyme)” was tested, and the binding (GST-p53 (human)) was “binds”.

For “PHD3 HD135/137AA (from UniProt Q9H6Z9 1-239) (enzyme)”, the binding [2] was “no binding”.

In the case of “PHD3 wt (Figure 1E) (from UniProt Q9H6Z9 1-239) (enzyme)”, the binding [2] was “binds”.

For “endogenous p53 (HEK293T) (from UniProt P04637 1-393)”, the binding (V5-tagged PHD3) was “binds”.

With “endogenous p53 (HeLa) (from UniProt P04637 1-393)” the binding [3] was “binds”.

In the case of “endogenous PHD3 (HeLa) (from UniProt Q9H6Z9 1-239) (enzyme)”, the binding [4] was “binds”.
